Data reported in patent US8669255B2, “Substituted octahydropyrrolo[1,2-a]pyrazines as calcium channel blockers” (AbbVie Inc., priority 2011, dated 2014).

The compounds below were run against human Cav2.2 (Homo sapiens, UniProt Q00975) (assay: In vitro assessment of calcium channel activity using FLIPR (Ca2+ influx in IMR32 cells)). Conditions: IMR32 cells endogenously expressing human Cav2.2; 60 minute pre-incubation; 2 μM nifedipine; depolarized with 80 mM KCl; average of at least two runs unless marked (*).
Assay type: cell-based
Method: (i) In Vitro Assessment of Calcium Channel Activity Using FLIPR
The IMR32 cells were maintained in MEM media containing 10% (v/v) FBS, 1% (v/v) antibiotic/antimitotic, 1% (v/v) sodium pyruvate and 1% (v/v) MEM NEAA. Following dissociation in 0.05% (v/v) trypsin/EDTA, cells were seeded into black 1×96-well plates (Corning Cellbind) at a density of 1-1.2×10^5 cells/well and incubated in the maintenance media above for 48 hours at 37° C. Immediately prior to performing the assay the media was removed and cells were loaded for 1.5 hours with 1× Calcium 4 dye prepared in HBSS (137 mM NaCl, 5.4 mM KCl, 0.25 mM Na2HPO4, 0.44 mM KH2PO4, 1.3 mM CaCl2, 1 mM MgSO4, 4.2 mM NaHCO3) containing HEPES pH 7.4 at room temperature. After dye loading and a subsequent 60 minute pre-incubation with compounds (full log dilutions from 10 μM to 0.1 nM) in the presence of 1.3 mM CaCl2 and 2 μM nifedipine to block endogenous L-type channels, the external Ca^2+concentration was increased to 5 mM CaCl2 and the cells concomitantly depolarized with 80 mM KCl to assay channel activity. To determine the IC50 values, the percent inhibition of the compound at each concentration was determined relative to the activity in the absence of inhibitor, and data was fitted using non-linear regression sigmoidal dose response curve analysis with GraphPad Prism®. Unless otherwise indicated (*), the reported values are average values from at least two runs (i.e., n≧2).

Row | IC50 [nM] | SMILES
1 | 730 | COC(=O)NC(C(=O)N1CCN2C[C@H](Oc3cnc(C4CC4)cn3)C[C@H]2C1)c1ccc(C(F)(F)F)cc1 (stereo partly drawn) [Example 183, methyl {2-[(7R,8aS)-7-[(5-cyclopropylpyrazin-2-yl)oxy]hexahydro-pyrrolo[1,2-a]pyrazin-2(1H)-yl]-2-oxo-1-[4-(trifluoromethyl)phenyl]ethyl}carbamate]
2 | 2430 | CC(C)(C)OC(=O)N1CCN2C[C@@H](Nc3cccc(C(F)(F)F)n3)C[C@H]2C1 [Example 18A, tert-butyl (7S,8aS)-7-{[6-(trifluoromethyl)pyridin-2-yl]amino}hexahydro-pyrrolo[1,2-a]pyrazine-2(1H)-carboxylate]
3 | 2610 | CC(C)(C)OC(=O)N1CCN2C[C@H](Oc3cccc(C(F)(F)F)n3)C[C@H]2C1 [Example 58A, tert-butyl (7R,8aS)-7-{[6-(trifluoromethyl)pyridin-2-yl]oxy}hexahydro-pyrrolo[1,2-a]pyrazine-2(1H)-carboxylate]
4 | 5420 | O=C(c1ccc(C(F)(F)F)cc1)N1CC(=O)N2C[C@H](Oc3cnc(C4CC4)cn3)C[C@H]2C1 [Example 174, (7R,8aS)-7-[(5-cyclopropylpyrazin-2-yl)oxy]-2-[4-(trifluoromethyl)-benzoyl]hexahydropyrrolo[1,2-a]pyrazin-4(1H)-one]
5 | 11000 | CCC(CC)C(=O)N1CCN2C[C@@H](NS(=O)(=O)Cc3ccc(Cl)cc3)C[C@H]2C1 [Example 52, 1-(4-chlorophenyl)-N-[(7S,8aS)-2-(2-ethylbutanoyl)octahydropyrrolo[1,2-a]pyrazin-7-yl]methanesulfonamide]
6 | 3250 | O=C(N[C@H]1C[C@H]2CN(C(=O)c3ccc(Cl)cc3F)CCN2C1)c1cccc(C(F)(F)F)c1 [Example 14, N-[(7S,8aS)-2-(4-chloro-2-fluorobenzoyl)octahydropyrrolo[1,2-a]pyrazin-7-yl]-3-(trifluoromethyl)benzamide]
7 | 1610 | O=C(c1ccc(F)c(OC(F)(F)F)c1)N1CCN2C[C@H](Oc3cnc(C4CC4)cn3)C[C@H]2C1 [Example 132, [(7R,8aS)-7-[(5-cyclopropylpyrazin-2-yl)oxy]hexahydropyrrolo[1,2-a]-pyrazin-2(1H)-yl][4-fluoro-3-(trifluoromethoxy)phenyl]methanone]
8 | 1520 | O=C([C@@H](O)c1cccc(C(F)(F)F)c1)N1CCN2C[C@H](Oc3cnc(C4CC4)cn3)C[C@H]2C1 [Example 160, (2S)-1-[(7R,8aS)-7-[(5-cyclopropylpyrazin-2-yl)oxy]hexahydropyrrolo[1,2-a]pyrazin-2(1H)-yl]-2-hydroxy-2-[3-(trifluoromethyl)phenyl]ethanone]
9 | 1100 | CC(C)NC(C(=O)N1CCN2C[C@H](Oc3cnc(C4CC4)cn3)C[C@H]2C1)c1ccc(C(F)(F)F)cc1 (stereo partly drawn) [Example 195, 1-[(7R,8aS)-7-[(5-cyclopropylpyrazin-2-yl)oxy]hexahydropyrrolo[1,2-a]-pyrazin-2(1H)-yl]-2-(isopropylamino)-2-[4-(trifluoromethyl)phenyl]ethanone]
10 | 2100 | O=C(c1cc(F)c(Cl)cc1F)N1CCN2C[C@H](Oc3cnc(C4CC4)cn3)C[C@H]2C1 [Example 73, (4-chloro-2,5-difluorophenyl)[(7R,8aS)-7-[(5-cyclopropylpyrazin-2-yl)-oxy]hexahydropyrrolo[1,2-a]pyrazin-2(1H)-yl]methanone]
11 | 2120 | O=C(N[C@H]1C[C@H]2CN(C(=O)c3ccc(C(F)(F)F)cc3)CCN2C1)c1ccc(F)c(Cl)c1 [Example 8, 3-chloro-4-fluoro-N-{(7S,8aS)-2-[4-(trifluoromethyl)benzoyl]-octahydropyrrolo[1,2-a]pyrazin-7-yl}benzamide]
12 | 3530 | O=C1[C@H]2C[C@@H](Oc3cnc(C4CC4)cn3)CN2CCN1Cc1cccc(C(F)(F)F)c1 (single isomer, unassigned) [Example 164]
13 | 1650 | O=C(c1ccc2c(c1)OC(F)(F)O2)N1CCN2C[C@H](Oc3cnc(C4CC4)cn3)C[C@H]2C1 [Example 126, [(7R,8aS)-7-[(5-cyclopropylpyrazin-2-yl)oxy]hexahydropyrrolo[1,2-a]-pyrazin-2(1H)-yl](2,2-difluoro-1,3-benzodioxol-5-yl)methanone]
14 | 4840 | CC(=O)NC(C(=O)N1CCN2C[C@H](Oc3cnc(C4CC4)cn3)C[C@H]2C1)c1cccc(C(F)(F)F)c1 (stereo partly drawn) [Example 210, N-{2-[(7R,8aS)-7-[(5-cyclopropylpyrazin-2-yl)oxy]hexahydropyrrolo[1,2-a]pyrazin-2(1H)-yl]-2-oxo-1-[3-(trifluoromethyl)phenyl]ethyl}acetamide]
15 | 2010 | FC(F)(F)c1cccc(N2CCN3C[C@H](Oc4cnc(C5CC5)cn4)C[C@H]3C2)n1 [Example 89, (7R,8aS)-7-[(5-cyclopropylpyrazin-2-yl)oxy]-2-[6-(trifluoromethyl)pyridin-2-yl]octahydropyrrolo[1,2-a]pyrazine]
16 | 6880 | O=C(N[C@H]1C[C@H]2CN(C(=O)c3ccc(C(F)(F)F)cc3)CCN2C1)c1ccc(Cl)cc1 [Example 5, 4-chloro-N-{(7S,8aS)-2-[4-(trifluoromethyl)benzoyl]octahydropyrrolo[1,2-a]pyrazin-7-yl}benzamide]
17 | > 30000 | O=C(CC(F)(F)F)N1CCN2C[C@@H](Nc3cccc(C(F)(F)F)n3)C[C@H]2C1 [Example 30, 3,3,3-trifluoro-1-[(7S,8aS)-7-{[6-(trifluoromethyl)pyridin-2-yl]amino}-hexahydropyrrolo[1,2-a]pyrazin-2(1H)-yl]propan-1-one]
18 | 2960 | O=C(c1ccc(F)c(C(F)(F)F)c1)N1CCN2C[C@H](Oc3cnc(C4CC4)cn3)C[C@H]2C1 [Example 55, [(7R,8aS)-7-[(5-cyclopropylpyrazin-2-yl)oxy]hexahydropyrrolo[1,2-a]-pyrazin-2(1H)-yl][4-fluoro-3-(trifluoromethyl)phenyl]methanone]
19 | 8580 | COc1cccc(C(=O)N2CCN3C[C@H](Oc4cnc(C5CC5)cn4)C[C@H]3C2)n1 [Example 108, [(7R,8aS)-7-[(5-cyclopropylpyrazin-2-yl)oxy]hexahydropyrrolo[1,2-a]-pyrazin-2(1H)-yl](6-methoxypyridin-2-yl)methanone]

Row | SMILES | IC50 [nM]
20 | Clc1ccc(O[C@H]2C[C@@H]3CN(Cc4ccccc4)CCN3C2)nc1 [Example 92, (7S,8aR)-2-benzyl-7-[(5-chloropyridin-2-yl)oxy]octahydropyrrolo[1,2-a]-pyrazine] | 1870
21 | CC(C)(C)OC(=O)N1CCN2C[C@@H](Oc3ccc(Cl)cn3)C[C@H]2C1 [Example 62, tert-butyl (7S,8aS)-7-[(5-chloropyridin-2-yl)oxy]hexahydropyrrolo[1,2-a]-pyrazine-2(1H)-carboxylate] | > 30000
22 | CC(C)(C)OC(=O)N1CCN2C[C@H](Oc3ccc(Cl)cn3)C[C@H]2C1 [Example 56, tert-butyl (7R,8aS)-7-[(5-chloropyridin-2-yl)oxy]hexahydropyrrolo[1,2-a]-pyrazine-2(1H)-carboxylate] | 5710
23 | FC(F)(F)c1ccc(N[C@H]2C[C@H]3CNCCN3C2)nc1 [Example 20, (7S,8aS)-N-[5-(trifluoromethyl)pyridin-2-yl]octahydropyrrolo[1,2-a]-pyrazin-7-amine] | 17600
24 | O=C(COc1cccc(Cl)c1)N1CCN2C[C@H](Oc3cnc(C4CC4)cn3)C[C@H]2C1 [Example 150, 2-(3-chlorophenoxy)-1-[(7R,8aS)-7-[(5-cyclopropylpyrazin-2-yl)oxy]-hexahydropyrrolo[1,2-a]pyrazin-2(1H)-yl]ethanone] | 1050
